Measurements published in the supplement of paper PMC8728848.
The list shows a part of the results.

Assays:
Test in all cases: glycan array binding signal (z-score within array); higher = stronger binding
Details in all cases: glycan notation: IUPAC condensed, linker removed
Gal(a1-6)Glc = molecular target: Gal(a1-6)Glc
Summary of the method: (§1)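 Glycan array data were curated from 3228 arrays in the Consortium for Functional Glycomics database and kept only where the protein sequence was available. Glycan names were converted to IUPAC-condensed notation, and columns mapping to the same glycan were averaged. The binding signal is a within-array Z-score, averaged across arrays of the same protein sequence at different concentrations or buffers and across linkers. Negative Z-scores can be read as non-binding.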

Gal(b1-2)Gal = molecular target: Gal(b1-2)Gal
Summary of the method: as §1

Gal(b1-3)Gal = molecular target: Gal(b1-3)Gal
Summary of the method: as §1

Gal(b1-3)Gal(b1-4)GlcNAc = molecular target: Gal(b1-3)Gal(b1-4)GlcNAc
Summary of the method: as §1

Gal(b1-3)GalNAc = molecular target: Gal(b1-3)GalNAc
Summary of the method: as §1

[1] = molecular target: Gal(b1-3)GalNAc(b1-3)Gal(a1-4)Gal(b1-4)Glc
Summary of the method: as §1

[2] = molecular target: Gal(b1-3)GalNAc(b1-4)Gal(b1-4)Glc
Summary of the method: as §1

[3] = molecular target: Gal(b1-3)GalNAc(b1-4)[Neu5Ac(a2-3)]Gal(b1-4)Glc
Summary of the method: as §1

Gal(b1-3)GlcNAc = molecular target: Gal(b1-3)GlcNAc
Summary of the method: as §1

[4] = molecular target: Gal(b1-3)GlcNAc(b1-2)Man(a1-3)[Gal(b1-3)GlcNAc(b1-2)Man(a1-6)]Man(b1-4)GlcNAc(b1-4)GlcNAc
Summary of the method: as §1

[5] = molecular target: Gal(b1-3)GlcNAc(b1-3)Gal(b1-3)GlcNAc
Summary of the method: as §1

[6] = molecular target: Gal(b1-3)GlcNAc(b1-3)Gal(b1-4)Glc
Summary of the method: as §1

[7] = molecular target: Gal(b1-3)GlcNAc(b1-3)Gal(b1-4)GlcNAc
Summary of the method: as §1

[8] = molecular target: Gal(b1-3)[Fuc(a1-4)]GlcNAc
Summary of the method: as §1

[9] = molecular target: Gal(b1-3)[Fuc(a1-4)]GlcNAc(b1-3)Gal(b1-3)[Fuc(a1-4)]GlcNAc
Summary of the method: as §1

[10] = molecular target: Gal(b1-3)[Fuc(a1-4)]GlcNAc(b1-3)Gal(b1-4)GlcNAc
Summary of the method: as §1

[11] = molecular target: Gal(b1-3)[Fuc(a1-4)]GlcNAc(b1-3)Gal(b1-4)[Fuc(a1-3)]GlcNAc
Summary of the method: as §1

[12] = molecular target: Gal(b1-3)[GlcNAc(b1-6)]GalNAc
Summary of the method: as §1

[13] = molecular target: Gal(b1-3)[Neu5Ac(a2-6)]GalNAc
Summary of the method: as §1

[14] = molecular target: Gal(b1-3)[Neu5Ac(a2-6)]GlcNAc(b1-6)Gal(b1-4)Glc
Summary of the method: as §1

[15] = molecular target: Gal(b1-3)[Neu5Ac(b2-6)]GalNAc
Summary of the method: as §1

[16] = molecular target: Gal(b1-4)GalNAc(a1-3)[Fuc(a1-2)]Gal(b1-4)GlcNAc
Summary of the method: as §1

[17] = molecular target: Gal(b1-4)GalNAc(b1-3)[Fuc(a1-2)]Gal(b1-4)GlcNAc
Summary of the method: as §1

Gal(b1-4)Glc = molecular target: Gal(b1-4)Glc
Summary of the method: as §1

Gal(b1-4)Glc6S = molecular target: Gal(b1-4)Glc6S
Summary of the method: as §1

Gal(b1-4)GlcNAc = molecular target: Gal(b1-4)GlcNAc
Summary of the method: as §1

[18] = molecular target: Gal(b1-4)GlcNAc(a1-6)Gal(b1-4)GlcNAc
Summary of the method: as §1

[19] = molecular target: Gal(b1-4)GlcNAc(b1-2)Man(a1-3)[Gal(b1-4)GlcNAc(b1-2)Man(a1-6)]Man(b1-4)GlcNAc(b1-4)GlcNAc
Summary of the method: as §1

[20] = molecular target: Gal(b1-4)GlcNAc(b1-3)Gal(b1-3)GlcNAc
Summary of the method: as §1

[21] = molecular target: Gal(b1-4)GlcNAc(b1-3)Gal(b1-4)Glc
Summary of the method: as §1

[22] = molecular target: Gal(b1-4)GlcNAc(b1-3)Gal(b1-4)GlcNAc
Summary of the method: as §1

[23] = molecular target: Gal(b1-4)GlcNAc(b1-3)Gal(b1-4)GlcNAc(b1-3)Gal(b1-4)GlcNAc
Summary of the method: as §1

[24] = molecular target: Gal(b1-4)GlcNAc(b1-3)Gal(b1-4)[Fuc(a1-3)]GlcNAc(b1-3)Gal(b1-4)[Fuc(a1-3)]GlcNAc
Summary of the method: as §1

[25] = molecular target: Gal(b1-4)GlcNAc(b1-3)GalNAc
Summary of the method: as §1

[26] = molecular target: Gal(b1-4)GlcNAc(b1-3)[Gal(b1-4)GlcNAc(b1-6)]Gal(b1-4)GlcNAc
Summary of the method: as §1

[27] = molecular target: Gal(b1-4)GlcNAc(b1-3)[Gal(b1-4)GlcNAc(b1-6)]GalNAc
Summary of the method: as §1

[28] = molecular target: Gal(b1-4)GlcNAc(b1-3)[GlcNAc(b1-6)]Gal(b1-4)GlcNAc
Summary of the method: as §1

[29] = molecular target: Gal(b1-4)GlcNAc(b1-6)Gal(b1-4)GlcNAc
Summary of the method: as §1

[30] = molecular target: Gal(b1-4)GlcNAc(b1-6)Gal(b1-4)GlcNAc(b1-6)GalNAc
Summary of the method: as §1

[31] = molecular target: Gal(b1-4)GlcNAc(b1-6)GalNAc
Summary of the method: as §1

[32] = molecular target: Gal(b1-4)GlcNAc(b1-6)[Gal(b1-3)]GalNAc
Summary of the method: as §1

Gal3S(b1-3)GalNAc = molecular target: Gal3S(b1-3)GalNAc
Summary of the method: as §1

Gal3S(b1-3)GlcNAc = molecular target: Gal3S(b1-3)GlcNAc
Summary of the method: as §1

[33] = molecular target: Gal3S(b1-3)[Fuc(a1-4)]GlcNAc
Summary of the method: as §1

Gal3S(b1-4)Glc = molecular target: Gal3S(b1-4)Glc
Summary of the method: as §1

Gal3S(b1-4)Glc6S = molecular target: Gal3S(b1-4)Glc6S
Summary of the method: as §1

Gal3S(b1-4)GlcNAc = molecular target: Gal3S(b1-4)GlcNAc
Summary of the method: as §1

Gal3S(b1-4)GlcNAc6S = molecular target: Gal3S(b1-4)GlcNAc6S
Summary of the method: as §1

[34] = molecular target: Gal3S(b1-4)[Fuc(a1-3)]Glc
Summary of the method: as §1

Gal3S4S(b1-4)GlcNAc = molecular target: Gal3S4S(b1-4)GlcNAc
Summary of the method: as §1

Gal3S6S(b1-4)GlcNAc = molecular target: Gal3S6S(b1-4)GlcNAc
Summary of the method: as §1

Gal3S6S(b1-4)GlcNAc6S = molecular target: Gal3S6S(b1-4)GlcNAc6S
Summary of the method: as §1

Gal4S(b1-4)GlcNAc = molecular target: Gal4S(b1-4)GlcNAc
Summary of the method: as §1

Gal4S6S(b1-4)GlcNAc = molecular target: Gal4S6S(b1-4)GlcNAc
Summary of the method: as §1

Gal6S(b1-4)Glc = molecular target: Gal6S(b1-4)Glc
Summary of the method: as §1

Gal6S(b1-4)Glc6S = molecular target: Gal6S(b1-4)Glc6S
Summary of the method: as §1

Gal6S(b1-4)GlcNAc = molecular target: Gal6S(b1-4)GlcNAc
Summary of the method: as §1

Gal6S(b1-4)GlcNAc6S = molecular target: Gal6S(b1-4)GlcNAc6S
Summary of the method: as §1

GalNAc(a1-3)Gal = molecular target: GalNAc(a1-3)Gal
Summary of the method: as §1

GalNAc(a1-3)GalNAc = molecular target: GalNAc(a1-3)GalNAc
Summary of the method: as §1

B1: E-Selectin (Homo sapiens), P16581 (protein)
chain: MIASQFLSALTLVLLIKESGAWSYNTSTEAMTYDEASAYCQQRYTHLVAIQNKEEIEYLNSILSYSPSYYWIGIRKVNNVWVWVGTQKPLTEEAKNWAPGEPNNRQKDEDCVEIYIKREKDVGMWNDERCSKKKLALCYTAACTNTSCSGHGECVETINNYTCKCDPGFSGLKCEQIVNCTALESPEHGSLVCSHPLGNFSYNSSCSISCDRGYLPSSMETMQCMSSGEWSAPIPACNVVECDAVTNPANGFVECFQNPGSFPWNTTCTFDCEEGFELMGAQSLQCTSSGNWDNEKPTCKAVTCRAVRQPQNGSVRCSHSPAGEFTFKSSCNFTCEEGFMLQGPAQVECTTQGQWTQQIPVCEAFQCTALSNPERGYMNCLPSASGSFRYGSSCEFSCEQGFVLKGSKRLQCGPTGEWDNEKPTCEAVRCDAVHQPPKGLVRCAHSPIGEFTYKSSCAFSCEEGFELHGSTQLECTSQGQWTEEVPSCQVVKCSSLAVPGKINMSCSGEPVFGTVCKFACPEGWTLNGSAARTCGATGHWSGLLPTCEAPTESNIPLVAGLSAAGLSLLTLAPFLLWLRKCLRKAKKFVPASSCQSLESDGSYQKPSYIL
glycan array binding signal (z-score) (Gal(a1-6)Glc): -0.112
glycan array binding signal (z-score) (Gal(b1-2)Gal): -0.172
glycan array binding signal (z-score) (Gal(b1-3)Gal): -0.183
glycan array binding signal (z-score) (Gal(b1-3)Gal(b1-4)GlcNAc): -0.311
glycan array binding signal (z-score) (Gal(b1-3)GalNAc): -0.291
glycan array binding signal (z-score) [1]: -0.194
glycan array binding signal (z-score) [2]: -0.14
glycan array binding signal (z-score) [3]: -0.141
glycan array binding signal (z-score) (Gal(b1-3)GlcNAc): -0.238
glycan array binding signal (z-score) [4]: -0.421
glycan array binding signal (z-score) [5]: -0.26
glycan array binding signal (z-score) [6]: -0.226
glycan array binding signal (z-score) [7]: -0.181
glycan array binding signal (z-score) [8]: -0.191
glycan array binding signal (z-score) [9]: -0.171
glycan array binding signal (z-score) [10]: -0.214
glycan array binding signal (z-score) [11]: -0.082
glycan array binding signal (z-score) [12]: -0.208
glycan array binding signal (z-score) [13]: -0.234
glycan array binding signal (z-score) [14]: -0.147
glycan array binding signal (z-score) [15]: -0.168
glycan array binding signal (z-score) [16]: -0.275
glycan array binding signal (z-score) [17]: -0.285
glycan array binding signal (z-score) (Gal(b1-4)Glc): -0.251
glycan array binding signal (z-score) (Gal(b1-4)Glc6S): 0.01
glycan array binding signal (z-score) (Gal(b1-4)GlcNAc): -0.195
glycan array binding signal (z-score) [18]: -0.222
glycan array binding signal (z-score) [19]: -0.189
glycan array binding signal (z-score) [20]: 0.024
glycan array binding signal (z-score) [21]: -0.075
glycan array binding signal (z-score) [22]: -0.119
glycan array binding signal (z-score) [23]: -0.072
glycan array binding signal (z-score) [24]: -0.22
glycan array binding signal (z-score) [25]: -0.331
glycan array binding signal (z-score) [26]: -0.176
glycan array binding signal (z-score) [27]: -0.14
glycan array binding signal (z-score) [28]: -0.027
glycan array binding signal (z-score) [29]: -0.057
glycan array binding signal (z-score) [30]: -0.151
glycan array binding signal (z-score) [31]: -0.213
glycan array binding signal (z-score) [32]: -0.218
glycan array binding signal (z-score) (Gal3S(b1-3)GalNAc): -0.045
glycan array binding signal (z-score) (Gal3S(b1-3)GlcNAc): 0.086
glycan array binding signal (z-score) [33]: 1.21
glycan array binding signal (z-score) (Gal3S(b1-4)Glc): -0.07
glycan array binding signal (z-score) (Gal3S(b1-4)Glc6S): 0.304
glycan array binding signal (z-score) (Gal3S(b1-4)GlcNAc): 0.18
glycan array binding signal (z-score) (Gal3S(b1-4)GlcNAc6S): -0.005
glycan array binding signal (z-score) [34]: 0.178
glycan array binding signal (z-score) (Gal3S4S(b1-4)GlcNAc): 0.606
glycan array binding signal (z-score) (Gal3S6S(b1-4)GlcNAc): 0.324
glycan array binding signal (z-score) (Gal3S6S(b1-4)GlcNAc6S): 0.727
glycan array binding signal (z-score) (Gal4S(b1-4)GlcNAc): 0.303
glycan array binding signal (z-score) (Gal4S6S(b1-4)GlcNAc): 0.276
glycan array binding signal (z-score) (Gal6S(b1-4)Glc): -0.044
glycan array binding signal (z-score) (Gal6S(b1-4)Glc6S): 0.338
glycan array binding signal (z-score) (Gal6S(b1-4)GlcNAc): 0.073
glycan array binding signal (z-score) (Gal6S(b1-4)GlcNAc6S): 0.433
glycan array binding signal (z-score) (GalNAc(a1-3)Gal): -0.247
glycan array binding signal (z-score) (GalNAc(a1-3)GalNAc): -0.108
